The supplement of paper PMC12217912
The other results are listed elsewhere or left out. Sequences were assembled here from the parent chain. Values near 0.05 are background.

B1: TEV protease; numbered along this chain (parent)
chain: MGESLFKGPRDYNPISSSICHLTNESDGHTTSLYGIGFGPFIITNKHLFRRNNGTLVVQSLHGVFKVKDTTTLQQHLVDGRDMIIIRMPKDFPPFPQKLKFREPQREERICLVTTNFQTKSMSSMVSDTSCTFPSGDGIFWKHWIQTKDGQCGSPLVSTRDGFIVGIHSASNFTNTNNYFTSVPKNFMELLTNQEAQQWVSGWRLNADSVLWGGHKVFMVKPEEPFQPVKEATQL

Variants of: B1
Assay: raw area under fraction-flipped curve 0-4 h after induction (AUC4h, not background-subtracted), DNA-recorder readout of cleavage of the substrate (dimensionless); higher = more cleavage of the substrate by the protease variant
Settings: temperature: 34 °C; time window: 0-4 h after rhamnose induction
Procedure: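 In vivo DNA recorder in E. coli TOP10(DE3) ΔrhaA at 34 °C. Each TEVp single-site mutant (parent TEVp 0) is paired with a single-site variant of the 7-mer TEVs (canonical ENLYFQ|S). The substrate sits between flexible linkers in a Bxb1-sfGFP-TEVs-SsrA fusion, so cleavage stabilises Bxb1 and speeds flipping of a recombination array, read by NGS. The value is the raw area under the fraction-flipped curve over 0-4 h after rhamnose induction (AUC4h), with ≥20 reads per time point. It is not background-subtracted; inactive controls average about 0.047.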
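Further: Bxb1 expression induced with 0.2% (w/v) L-rhamnose at OD600 near 0.5, cultures sampled hourly, flipped fraction per protease–substrate barcode pair counted by paired-end Illumina sequencing.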

Row | Variant | area with substrate ENLYFCS | area with substrate ENLYFDS | area with substrate ENLYFES | area with substrate ENLYFIS | area with substrate ENLYFMS | area with substrate ENLYFNS | area with substrate ENLYFPS | area with substrate ENLYFRS | area with substrate ENLYFVS | area with substrate ENLYFWS
1 | K185N | 0.0614 | 0.1 | 0.0442 | 0.0531 | 0.0662 | 0.0677 | 0.0599 | 0.0519 | 0.0524 | 0.0565
2 | F187A | 0.0511 | 0.0512 | 0.0628 | 0.056 | 0.0638 | 0.0587 | 0.0543 | 0.0556 | 0.0398 | 0.055
3 | F187G | 0.0589 | – | 0.0594 | 0.0515 | 0.0525 | 0.0686 | 0.043 | – | – | 0.0611
4 | L190P | 0.0723 | – | – | 0.0483 | 0.0321 | 0.0471 | 0.0578 | 0.0561 | – | 0.0571
5 | N193Q | 0.0526 | – | 0.0605 | – | – | – | 0.053 | 0.0551 | – | –
6 | Q194C | 0.0622 | – | 0.0568 | 0.0607 | 0.0784 | 0.073 | 0.0495 | 0.0548 | – | 0.0525
7 | Q194I | 0.0333 | – | – | 0.0631 | – | – | 0.0519 | – | – | –
8 | Q194W | 0.065 | – | – | 0.0306 | – | 0.0608 | 0.0524 | – | – | –
9 | E195L | 0.0338 | – | – | – | 0.0648 | – | 0.0699 | – | – | –
10 | A196V | 0.0616 | – | 0.06 | – | 0.0536 | – | – | 0.0721 | 0.0613 | –
11 | Q197I | 0.0593 | 0.0665 | – | 0.0521 | 0.0673 | 0.0619 | – | – | – | –
12 | S201H | 0.0619 | – | – | 0.0552 | 0.0599 | 0.0845 | – | 0.0518 | 0.0497 | 0.055
13 | R204D | 0.0535 | – | 0.064 | 0.0612 | 0.0637 | – | 0.0628 | 0.0618 | 0.0602 | 0.0368
14 | S209Y | 0.0556 | – | 0.0663 | 0.0549 | 0.0799 | – | 0.0694 | – | – | –
15 | V210P | 0.0655 | – | – | 0.0534 | 0.0527 | – | 0.0561 | 0.0668 | – | –
16 | L211T | 0.051 | – | – | – | – | – | – | – | – | –
17 | G214F | 0.0649 | – | – | – | 0.0609 | – | – | – | – | –
18 | H215F | 0.0577 | – | – | 0.0826 | 0.0608 | – | – | – | – | 0.0518
19 | Q227D | 0.0551 | 0.0552 | – | 0.0535 | 0.0667 | – | 0.0629 | 0.0583 | 0.0566 | 0.0485
20 | P228S | 0.0481 | 0.0599 | – | 0.0418 | 0.0786 | 0.065 | 0.0417 | – | – | 0.0582

Same assay, conditions: temperature: 34 °C; time window: 0-4 h after rhamnose induction

Row | Variant | area with substrate ENLYFYS | area with substrate ENLYFFS | area with substrate ENLYFHS | area with substrate ENLYFKS | area with substrate ENLYFLS | area with substrate ENLYFGS | area with substrate ENLYFSS | area with substrate ENLYFTS
21 | K185N | 0.0419 | – | – | – | – | – | – | –
22 | F187A | – | 0.0668 | 0.0722 | 0.0818 | 0.0557 | – | – | –
23 | F187G | 0.0603 | 0.0726 | – | 0.0526 | 0.0518 | 0.0445 | 0.0574 | 0.0471
24 | L190P | 0.0499 | 0.0699 | 0.0479 | 0.0471 | – | – | – | –
25 | N193Q | – | – | – | – | – | 0.0717 | – | –
26 | Q194C | – | 0.0642 | 0.0478 | – | 0.0707 | – | 0.0509 | –
27 | Q194I | – | 0.0648 | – | – | – | – | – | –
28 | Q194W | – | 0.0859 | – | – | – | – | – | 0.0636
29 | E195L | 0.0637 | – | 0.0566 | – | – | 0.0601 | – | 0.0567
30 | A196V | 0.0503 | – | 0.0619 | – | – | – | – | –
31 | S201H | – | – | – | 0.0617 | 0.0655 | – | – | –
32 | R204D | 0.0843 | 0.0682 | – | 0.0562 | – | 0.0757 | 0.0589 | 0.0509
33 | S209Y | 0.0717 | 0.048 | – | – | – | – | – | 0.0564
34 | V210P | 0.0597 | 0.0658 | – | – | – | – | – | –
35 | G214F | – | – | 0.0497 | – | – | – | – | –
36 | H215F | – | – | – | 0.0592 | – | – | – | –
37 | Q227D | – | 0.0623 | 0.0685 | 0.0361 | 0.0631 | – | 0.0695 | 0.0795
38 | P228S | – | – | – | – | – | – | 0.0561 | 0.0685
